# PubChem BioAssay AID624296 (National Center for Advancing Translational Sciences (NCATS), 2012)
# In all, about 350,000 compounds went through this assay and about 9,900 (2.8%) were called active. This list was built around the results that the source calls inconclusive (neither active nor inactive); the mix of calls is not that of the screen. The call rests on the fitted dose curve; in most records, active means well fitted activation curve with a large enough effect; inconclusive means small, poorly fitted or top-dose-only effect; inactive means no such curve, though single readings can be large or run the other way. No potency is given beside an inconclusive call; the fits are too rough.
# Assay: A quantitative high throughput screen for small molecules that induce DNA re-replication in MCF 10a normal breast cells. Further: nearly all actives have a fitted effect of over 50% in size.
# Settings: MCF 10A DNA re-replication, Hoechst nuclear intensity, 48 h; series mostly up to 46.1 µM
# Potency means the concentration at half of the fitted maximal effect; tags describe the fitted curve by direction and shape.
row,Compound,Potency
1,COc1ccc2nc(C)cc(Sc3nc4ccccc4s3)c2c1,active: 16.4 µM
2,COc1ccc(CCN=C(N)Nc2nc(C)cc(C)n2)cc1,"inconclusive [activator, single point]"
3,CC(C)(C)c1cc(Br)ccc1OCC(=O)Nc1ncn[nH]1,"inconclusive [activator, partial curve, poor fit]"
4,Cc1ccc(OCCCn2c(CO)nc3ccccc32)cc1,"inconclusive [activator, single point]"
5,CC(C)CSc1nnc2c3ccccc3n(C)c2n1,"inconclusive [activator, single point]"
6,N#CC1=CN(Cc2ccccc2)C=C(/C=N/Nc2ccccc2)C1,"inconclusive [activator, partial curve, poor fit]"
7,COc1cccc2cc(C(=O)Nc3cc(Cl)ccc3N3CCOCC3)c(=O)oc12,"inconclusive [activator, partial curve, poor fit]"
8,Cc1c(C(=O)Nc2cccc(S(=O)(=O)N3CCCC3)c2)oc2ccccc12,inactive
9,CC(C)Oc1ccc(C(=O)Nc2ncn[nH]2)cc1,"inconclusive [activator, full curve, poor fit]"
10,CCCc1c(OCCCCc2nn[nH]n2)ccc(C(C)=O)c1O,"inconclusive [activator, partial curve, poor fit]"
11,C=CCc1cccc2cc(C(=O)Nc3ccc(CC(=O)O)cc3)c(=O)oc12,inactive
12,COc1ccc(N2CCN(C(=O)c3ccc(CS(=O)(=O)c4ccccc4C)o3)CC2)cc1,inactive
13,COc1ccc(NC(=O)C2CCCN2S(=O)(=O)c2ccc(Cl)cc2)cc1 (stereo unspecified),inactive
14,CCOc1ccc(C(=O)NC(=S)Nc2cccnc2)cc1[N+](=O)[O-],inactive
15,Cn1c(Cl)cnc1C1CC(=O)c2cc(Cl)ccc2O1 (stereo unspecified),"inconclusive [activator, partial curve, poor fit]"
16,Cc1cccc2c(C(=O)N3CCN(c4ccccc4)CC3)cc(-c3ccncc3)nc12,active: 7.31 µM
17,CC1CCC(NC(=O)c2nn(C)c3c2CSc2ccccc2-3)CC1 (stereo unspecified),"inconclusive [activator, partial curve, poor fit]"
18,COc1ccc(/C=C\c2onc(C)c2S(=O)(=O)N2CCC(C(=O)NCc3ccco3)CC2)cc1,"inconclusive [activator, partial curve, poor fit]"
19,CCCn1nnc(NC(=O)c2ccco2)n1,"inconclusive [activator, single point]"
20,COc1ccc(S(=O)(=O)N2CCOCC2)cc1NC(=O)/C=C/c1ccccc1,inactive
21,On1c(-c2ccc(Cl)cc2)nc2ccccc21,inactive
22,O=C1[C@H]2CCC=C[C@H]2[C@H](c2cccc(Br)c2)N1Cc1ccccc1,"inconclusive [activator, single point]"
23,O=C(CCSc1nc(-c2ccco2)cc(C(F)(F)F)n1)N1CCN(c2ccccc2)CC1,"inconclusive [activator, partial curve, poor fit]"

row,Compound,Potency
1,COC(=O)C1CCN(C(=O)c2cc(-c3ccc(Cl)s3)nc3ccccc23)CC1,"inconclusive [activator, single point]"
2,CSc1nc(Oc2ccc3ccccc3c2)c2ccccc2n1,"inconclusive [activator, single point]"
3,CC(=O)Oc1ccc(/C=N/NC(=O)c2ccc(N(C)S(=O)(=O)c3ccccc3)cc2)cc1,"inconclusive [activator, single point]"
4,CC(C)(O)C#Cc1ccc([C@@H]2C[C@H]3CN(c4ccccc4)C(=O)[C@]34CCCN24)s1,"inconclusive [activator, full curve, poor fit]"
5,CCn1cc(C(=O)NCc2ccccc2)c(=O)c2cc(F)c(N3CCN(C(=O)c4ccco4)CC3)cc21,"inconclusive [activator, single point]"
6,O=C(CSc1ncnc2c1cnn2-c1ccccc1)Nc1ccccc1,inactive
7,COc1ccc(CCNC(=O)COc2ccc([N+](=O)[O-])cc2)cc1,"inconclusive [activator, single point]"
8,CC(=O)c1c(N2CCOCC2)[nH]c(-c2ccccc2)nc1=S,inactive
9,CC(=O)Nc1cccc(NC(=O)CSc2nc3c(c(=O)n(C)c(=O)n3C)n2C)c1,inactive
10,CCC1(CC)Cc2ccccc2-c2nc(NCCO)[nH]c(=O)c21,"inconclusive [activator, single point]"
11,COc1ccc(/C=N/NC(=O)c2nc(-c3ccccc3)n(-c3ccccc3)n2)cc1,inactive
12,Cc1ccc(OCc2cnc(Cl)s2)c(C)c1,inactive
13,CC1=C(C)/C(=N\OC(=O)/C=C/c2ccccc2)C=CC1=O,"inconclusive [activator, partial curve, poor fit]"
14,O=C(COC(=O)c1ccc(-n2cnnn2)cc1)Nc1cc(Cl)ccc1F,inactive
15,COc1ccc(C(=O)NC2=Nc3ccccc3N=C(C)C2c2ccccc2)cc1 (stereo unspecified),"inconclusive [activator, partial curve, poor fit]"
16,CCC(=O)N/N=c1/sc2ccccc2n1C,"inconclusive [activator, partial curve, poor fit]"
17,CCCCCOc1ccc(C(C)(O)C(CN2CCOCC2)c2ccccc2)cc1 (stereo unspecified),"inconclusive [activator, single point]"
18,O=C(NCc1cccs1)C1CCCN(C(=O)Nc2ccccc2)C1 (stereo unspecified),"inconclusive [activator, single point]"
19,NC(=O)c1c(NC(=O)c2ccccc2)sc2c1CCC2,inactive
20,COc1cccc(C(=O)Nc2cc(C)c3c(=O)oc4ccccc4c3n2)c1,inactive
21,O=C1CCNCCN1[C@H](CO)c1ccccc1,inactive
22,O=Cc1ccccc1OCCCOc1cccc2cccnc12,active: 18.4 µM
23,COC(=O)c1cc(NC(=O)c2ccc(Cn3cc(Cl)cn3)o2)cc(C(=O)OC)c1,"inconclusive [activator, single point]"
